Source: PubChem BioAssay AID485344 (National Center for Advancing Translational Sciences (NCATS), 2010)
Among all 340,000 compounds or so, about 6,900 (2%) were called active. No stated cut-off is given here; in the data, active means inhibition above about 30%; inactive means below that, where a call was filed. Only a part is listed here, and it is no random draw. The source gives no active or inactive call for entries shown without one.

These compounds were tested against D(2) dopamine receptor (Homo sapiens) (UniProt P14416) (assay: HTS Assay for Allosteric Antagonists of the Human D2 Dopamine Receptor: Primary Screen for Antagonists). Details: HEK293 TREx D2 cells, calcium flux, dopamine EC80; at 10 µM; stronger effect = higher value.
Chain of UniProt P14416 (P14416 whole entry, looked up): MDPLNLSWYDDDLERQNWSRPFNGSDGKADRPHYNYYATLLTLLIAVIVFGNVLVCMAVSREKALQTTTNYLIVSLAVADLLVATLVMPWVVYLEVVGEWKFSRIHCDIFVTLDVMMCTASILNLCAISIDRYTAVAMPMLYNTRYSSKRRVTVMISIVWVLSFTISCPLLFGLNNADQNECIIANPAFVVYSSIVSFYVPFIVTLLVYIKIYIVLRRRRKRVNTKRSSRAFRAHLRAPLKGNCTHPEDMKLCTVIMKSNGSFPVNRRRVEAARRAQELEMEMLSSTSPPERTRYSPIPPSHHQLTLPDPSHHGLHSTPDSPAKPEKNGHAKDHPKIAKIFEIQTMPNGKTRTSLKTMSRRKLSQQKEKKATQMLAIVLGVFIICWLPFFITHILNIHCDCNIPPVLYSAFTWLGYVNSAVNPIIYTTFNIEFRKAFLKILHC
Summary of the method: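 Dopamine at EC80 is the agonist stimulus; test compounds precede it by 180 s. Calcium flux read kinetically in a force-coupled, inducible HEK293 T-REx D2 cell line.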
Further: 0% is about no effect.

SMILES	inhibition
CCCCOc1ccc(NC(=O)c2cc3c(n(-c4ccc(Cl)cc4)c2=O)CCCC3=O)cc1	3.93%
COC(=O)[C@@H]1C[C@@H]2CC[C@@H](O)C[C@@H]2N1Cc1ccc(OC)cc1	active: 39.2%
Cc1nn(C)c2c1c(-c1ccccc1)cc(=O)n2Cc1ccc(Br)cc1F	21.8%
COC(=O)c1ccc(NC(=O)CC2C(=O)N(c3cccc(C)c3)C(=O)N2Cc2ccco2)cc1 (configuration not stated)	-7.02%
Cc1cccc(N2C(=O)C(CC(=O)Nc3ccccc3)N(C3CCCCC3)C2=O)c1 (configuration not stated)	1.74%
COc1cccc(C2/C(=C(\O)c3ccc4c(c3)OCO4)C(=O)C(=O)N2CCN(C)C)c1OC (configuration not stated)	active: 41%
COc1cccc(C(=O)Nc2nc3nc(C)c(Cc4ccccc4)c(=O)n3[nH]2)c1	0.76%
CCOC(=O)c1c(C)[nH]c(C)c1S(=O)(=O)N(C)CC(=O)N1CCN(c2cccc(C)c2C)CC1	-1.54%
Cc1ccc(C)c(N2CCN(C(=O)CCc3c(C)nn(-c4ccc(N5CCCC5)nn4)c3C)CC2)c1	-2.92%
Cc1ccc(C(=O)Nc2c(C)nc3ccccn3c2=O)cc1	-1.31%
COc1ccccc1CNC(=O)CSc1nc2nc(C)c(Cc3ccccc3C)c(C)n2n1	5.91%
O=C(NCc1ccc(Cl)cc1)C1CCN(C(=O)c2cnn(-c3ccccc3)c2-n2cccc2)CC1	-10.8%
O=C(CCCCCn1c(=O)[nH]c2ccsc2c1=O)NCc1ccccc1	5.24%
CCOc1ccc(CNC(=O)Cn2nc(N3CCN(c4ccccc4)CC3)ccc2=O)cc1	1.05%
Oc1c(C(c2cccc(Br)c2)N2CCCC2)sc2nc(-c3ccco3)nn12 (configuration not stated)	19%
CC1CN(C(=O)CCC(=O)NCCCN2CCN(Cc3ccccc3)CC2)c2cc(Cl)ccc2O1 (configuration not stated)	active: 37.1%
CC(=O)CCc1ccc(OCC(O)CNCCOc2ccc(C)cc2)cc1 (configuration not stated)	active: 61%
CCCS(=O)(=O)c1c(S(=O)(=O)CCC)c2cc(C(C)(C)C)ccn2c1C(=O)c1ccc(C)cc1	-10.1%
COc1ccc(Nc2nnc(-c3cc4cc(Cl)ccc4oc3=O)s2)cc1	5.64%
CCC(C)NC(=O)c1ccc(Cn2c(=O)c3cccn3c3cccnc32)cc1 (configuration not stated)	3.38%
COc1cccc(CN2C(=O)c3ccccc3C2C(=O)NCCc2ccccc2)c1 (configuration not stated)	12%
CN(C)S(=O)(=O)c1ccc(NC(=O)CN2CCN(c3ccccn3)CC2)cc1	active: 30.2%
CC(C)c1ccc(NC(=O)C2CCCN(S(=O)(=O)c3ccc4[nH]c(=O)oc4c3)C2)cc1 (configuration not stated)	14.5%
CCc1ccccc1NC(=O)c1nc2nc(C)cc(C(F)F)n2n1	0.91%

SMILES	inhibition
CCN(CC)S(=O)(=O)c1ccc2c(c1)c(=O)c(C(=O)N1CCN(c3ccc(OC)cc3)CC1)cn2C	-7.39%
COCCCn1c(=O)c2sccc2n(Cc2cccc(C)c2)c1=O	active: 41.1%
Cc1ccc(CNC(=O)CN2N=C(c3ccc(C)cc3)CCC2=O)cc1	9.78%
CCCN(CCC)CCCNC(=O)Cn1ncn2c(cc3sc(CC)cc32)c1=O	-22.9%
Cn1c(-c2cccc(Br)c2)cnc1NCc1cccc(F)c1	6.36%
Cc1cc(C(N)=O)c2ccccc2n1	active: 49.8%
Cc1cccc(-c2nnc(SCC(=O)Nc3ccc(C)c(C)c3)o2)c1	5.78%
Cc1ccc(/C=C/c2onc(C)c2S(=O)(=O)N2CCC(C(=O)Nc3cccc(C#N)c3)CC2)cc1	-10.3%
CCN(CC)CCNC(=O)CN1C(=O)CSc2ccc(S(=O)(=O)N3CCOCC3)cc21	11.9%
CCOC(=O)COc1ccc(CC)cc1C(=O)c1ccn2nc(-c3ccc(C)cc3)cc2n1	-28.4%
Cc1ccccc1CSc1nc2c([nH]c3ccccc32)c(=O)n1-c1ccccc1	-1.88%
CCc1nnc2c(NCc3ccccc3)nc3ccccc3n12	-4.13%
CCOc1ccc(-c2cc(NC(=O)Nc3ccccc3Cl)c(C(=O)OC)s2)cc1	3.24%
OC(COc1c(F)cc(Br)cc1F)CN1CCc2ccccc2C1 (configuration not stated)	active: 64.8%
Cc1ccc(C(=O)N2CCN(c3ccccc3)CC2)cc1NC(=O)c1nsc2ccccc12	-26.5%
N#Cc1c(C(F)(F)F)cc(-c2cccs2)nc1SCC(=O)Nc1cccc(Br)c1	-0.241%
Cc1ccc(-c2nnc(Nc3ccc(F)cc3)c3ccccc23)cc1S(=O)(=O)NC(C)C	-3.16%
Cc1ccc(CNC(=O)CN2C(=O)C3CCCCN3c3ccc(C(=O)N(C)C)cc32)cc1 (configuration not stated)	22.8%
COc1ccccc1NC(=O)CN1C(=O)C(C)(C)c2ccccc21	-0.535%
CC1=C(C(=O)Nc2ccccc2C)C(c2sccc2C)n2ncnc2N1 (configuration not stated)	2.56%
Cc1ccc(S(N)(=O)=O)cc1NC(=O)c1c(-c2c(Cl)cccc2Cl)noc1C	-11.6%
Cc1cccc(CSc2ncc(Cl)c(C(=O)Nc3nnc(C)s3)n2)c1	2.9%
OC(COc1ccc(Cl)cc1)CN1CCN(c2cccc(Cl)c2)CC1 (configuration not stated)	active: 72.7%
